{"source": "PubChem BioAssay AID504466", "about": "(National Center for Advancing Translational Sciences (NCATS), 2011)", "note": "Screen size: about 330,000 compounds; about 4,200 (1.3%) were called active. Inconclusive results, whose numbers are uncertain, are shown with a selection of clear calls. Calls follow the shape of the dose curve; as a rule, active = well fitted activation curve with a large enough effect; inconclusive = small, poorly fitted or top-dose-only effect; inactive = no such curve, though single readings can be large or run the other way. Potencies beside an inconclusive call are fits to weak or partial responses and may not hold up. Potency is read from the fitted curve at half-maximal effect; tags tell the direction and shape of the fitted curve."}
{"experiment": "qHTS screen for small molecules that induce genotoxicity in human embryonic kidney (HEK293T) cells expressing luciferase-tagged ELG1; also: nearly all actives have a fitted effect of over 60% in size", "details": "HEK293T ELG1-luciferase reporter, luminescence, 16 h; series mostly up to 46 µM", "outline": "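DMSO vehicle served as control against compound-treated ELG1-luciferase HEK293T cells; exposure lasted 16 hr at 37 °C and 5% CO2, followed by ONE-Glo luminescence detection after 30 min.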"}
{"smiles": "COc1ccc(-c2nnc(SCC(=O)Nc3cccc(Cl)c3)o2)cc1", "Potency": "inconclusive: 23.1 µM [activator, partial curve, poor fit]"}
{"smiles": "Fc1ccc(/C=N/n2c(-c3cccs3)n[nH]c2=S)cc1", "Potency": "inactive"}
{"smiles": "Clc1ccccc1-c1nnc(-c2cccs2)o1", "Potency": "inconclusive: 7.08 µM [activator, full curve, poor fit]"}
{"smiles": "CCCCOc1ccc(-c2nnn(CC(=O)NCc3ccco3)n2)cc1", "Potency": "inconclusive: 14.6 µM [activator, partial curve, poor fit]"}
{"smiles": "CN1CCN(c2nc(-c3cccnc3)nc3ccccc23)CC1", "Potency": "inconclusive: 18.4 µM [activator, partial curve, poor fit]"}
{"smiles": "Cc1cc(C)nc(SCc2nnc(SCC(=O)NCc3ccco3)n2-c2ccccc2)n1", "Potency": "inactive"}
{"smiles": "COc1ccc(-c2cc3nnc(-c4ccccc4)nc3s2)cc1", "Potency": "inconclusive: 0.326 µM [activator, partial curve]"}
{"smiles": "CCCOc1cccc(-c2nnc(NC(=O)c3ccco3)s2)c1", "Potency": "inconclusive: 20.6 µM [activator, partial curve, poor fit]"}
{"smiles": "N#Cc1cc2cc3c(cc2nc1SCC(=O)N1CCOCC1)OCCO3", "Potency": "inconclusive: 0.92 µM [activator, full curve]"}
{"smiles": "O/N=C/c1ccc(OCc2ccccc2)c(Cl)c1", "Potency": "active: 16.4 µM"}
{"smiles": "Cc1nn2cc(-c3ccc(Cl)cc3)cnc2c1Cl", "Potency": "inconclusive: 3.26 µM [activator, full curve, poor fit]"}
{"smiles": "CCn1c(C)cc(C=C2C(=O)c3ccccc3C2=O)c1C", "Potency": "inconclusive: 4.11 µM [activator, single point]"}
{"smiles": "CCOC(=O)C1=C(C)NC(C)=C(C(=O)OCC)C1/C=C/c1ccccc1", "Potency": "inconclusive: 14.6 µM [activator, partial curve, poor fit]"}
{"smiles": "CC(C)C1N=C(c2ccc3c(c2)OCO3)CC(c2ccccc2O)N1", "note": "(configuration not stated)", "Potency": "inactive"}
{"smiles": "COCCCNC(=S)NNC(=O)c1csc2ccccc12", "Potency": "inactive"}
{"smiles": "COc1cc(OC)cc(-c2nc3cc(C)ccc3o2)c1", "Potency": "active: 16.4 µM"}
{"smiles": "c1ccc(N2CCN(c3ccccc3)C2c2cccs2)cc1", "Potency": "inconclusive: 20.6 µM [activator, single point]"}
{"smiles": "COc1ccccc1-c1nc(-c2ccc(C)nc2OC)no1", "Potency": "active: 8.2 µM"}
{"smiles": "CC1(c2ccccc2)NC(=S)N2C1NC(=S)N2c1ccccc1", "note": "(configuration not stated)", "Potency": "inactive"}
{"smiles": "Cc1ccc(-c2cc(=O)[nH][nH]2)c(C)c1", "Potency": "inactive"}
{"smiles": "O=S(=O)(c1ccc(OCC(O)CN2CCC(Cc3ccccc3)CC2)cc1)N1CCOCC1", "note": "(configuration not stated)", "Potency": "inactive"}
{"smiles": "CCC(Sc1nc2ccccc2c(=O)n1CCN1CCOCC1)C(=O)NCc1cccnc1", "note": "(configuration not stated)", "Potency": "inconclusive: 29.1 µM [activator, single point]"}
